# Measurements from PubChem BioAssay AID485344 (National Center for Advancing Translational Sciences (NCATS), 2010).
# Values joined by “and” are separate entries in the source; they are usually repeats but may differ in a detail not shown here. Equal values may be shown once. Out of some 340,000 compounds screened, about 6,900 (2%) were called active. Cut-off read from the data, not from the text of the source: active = inhibition above about 30%; inactive = below that, where a call was filed. The entries are a selection whose mix differs from that of the whole data set. Entries without a call were filed so in the source.
# Molecular target: D(2) dopamine receptor (Homo sapiens) (UniProt P14416)
# Sequence of UniProt P14416 (P14416 whole entry, looked up): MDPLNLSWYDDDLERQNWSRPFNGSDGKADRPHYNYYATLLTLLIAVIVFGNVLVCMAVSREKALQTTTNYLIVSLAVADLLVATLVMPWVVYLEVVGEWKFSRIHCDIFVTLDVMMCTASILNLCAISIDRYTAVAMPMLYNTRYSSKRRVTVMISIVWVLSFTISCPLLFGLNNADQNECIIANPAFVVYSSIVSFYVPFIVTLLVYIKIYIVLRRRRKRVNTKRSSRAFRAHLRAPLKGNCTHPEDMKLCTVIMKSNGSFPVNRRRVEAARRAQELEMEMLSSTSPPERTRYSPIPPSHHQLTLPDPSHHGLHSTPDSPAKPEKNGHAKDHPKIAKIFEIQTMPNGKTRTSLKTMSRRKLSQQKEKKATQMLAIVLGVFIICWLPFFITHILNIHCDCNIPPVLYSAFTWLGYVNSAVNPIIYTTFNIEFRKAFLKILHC
# Experiment: HTS Assay for Allosteric Antagonists of the Human D2 Dopamine Receptor: Primary Screen for Antagonists; note: 0% is about no effect
# Settings: HEK293 TREx D2 cells, calcium flux, dopamine EC80; at 10 µM; stronger effect = higher value
# Procedure, shortened: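 Overnight-induced (tetracycline, 30 C) HEK293 T-REx cells carrying force-coupled D2 receive a no-wash calcium dye, then compound, then EC80 dopamine at 180 s; signals are read kinetically throughout.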
row,SMILES,inhibition
1,CCCN(Cc1cccs1)C(=O)Nc1ccc(OCC)cc1,9.36%
2,Cc1ccccc1Cn1ccc(NC(=O)c2nn(C)cc2[N+](=O)[O-])n1,active: 31%
3,Cc1ccc(CNC(=O)c2nc(SCc3ccccc3F)ncc2Cl)cc1,22.7%
4,CCOC(=O)c1ccccc1NC(=O)CSc1nc2ccncc2[nH]1,13.2%
5,O=C(NCc1ccco1)c1ccc(Cn2c(SCc3ccc(F)cc3)nc3cccnc32)cc1,5.94%
6,Cc1ccc2nc(N3CCC(C(=O)N4CCN(c5cccc(C)c5C)CC4)CC3)[nH]c2c1,-13.5%
7,CC1CCCN(C(=O)c2cc3c(=O)n(C)c4ccccc4c3s2)C1 (configuration not stated),-3.03%
8,COc1ccc(C2C(C(N)=O)=C(C)Nc3nc(SCc4ccccc4Cl)nn32)cc1OC (configuration not stated),-5.26%
9,CCOc1ccc(C(=O)NCc2nc3cccnc3n2Cc2ccc(F)cc2)cc1OCC,-1.83%
10,COc1ccc(-n2c3c(cc(-c4nc(-c5ccc(C)cc5)cs4)c2=O)C(=O)CC(C)(C)C3)cc1,8.22%
11,CC(C)C(=O)NCC(c1ccc2c(c1)OCO2)N1CCN(c2ccccc2F)CC1 (configuration not stated),6.37%
12,COc1ccccc1C(=O)Nc1ccc2oc(-c3cccc(Cl)c3Cl)nc2c1,-8.76%
13,CCOC(=O)c1ccc(N2C(=O)c3n[nH]c(C)c3C2c2cccc(Br)c2)cc1 (configuration not stated),-16.5%
14,COc1ccc(CNC(=O)Cn2nnc(-c3ccc(C(F)(F)F)cc3)n2)cc1,-25%
15,NC(=O)c1ccc(NC(=O)CN2CCN(c3ccccc3)CC2)cc1,active: 62.9%
16,COc1ccc(C(=O)c2cn(Cc3ccccc3F)c3cc4c(cc3c2=O)OCO4)cc1,2.23%
17,O=c1cc(-c2ccccc2)n2c(SCc3ccc(Cl)cc3)nnc2[nH]1,21%
18,CN(C)CCCN1c2ccccc2Sc2ccc(Cl)cc21,active: 76.5% and active: 85.7%
19,Cc1cc(C)cc(OC(=O)c2cc(-c3ccc4c(c3)OCCO4)on2)c1,-2.54%
20,Nc1nc(NCCc2ccccc2)nc(NCc2ccccc2)c1[N+](=O)[O-],active: 45.2%
21,COc1ccc(/C=C/c2nc(-c3ccccc3O)n(-c3ccccc3)n2)cc1OC,-5.3%
22,CCC(=O)N1CCc2cc(S(=O)(=O)NCCC(=O)NC(C)c3ccccc3)ccc21 (configuration not stated),-5.03%
23,CN1C2=C(C#N)C(c3ccccc3)(C(F)(F)F)NC(=O)N2c2ccccc21 (configuration not stated),active: 32.2%
24,CC(=O)c1ccc(NC(=O)C(Cc2ccccc2)NS(=O)(=O)c2ccc3c(c2)CCC(=O)N3)cc1 (configuration not stated),22.5%
25,O=C(C1CCN(S(=O)(=O)c2cccc3nonc23)CC1)N1CCN(c2ccc(F)cc2)CC1,2.04%

row,SMILES,inhibition
1,CC(=O)c1cccc(NC(=O)c2ccc3c(c2)CCCC3)c1,active: 32.9%
2,CCOc1ccc(CNC(=O)CCS(=O)(=O)c2cc3c4c(c2)CCN4C(=O)CC3)cc1,-1.31%
3,CCOC(=O)c1c(C)oc2ncnc(Nc3ccc(CC)cc3)c12,-7.96%
4,CC1CCN(C(=O)CN2CCSc3ccc(S(=O)(=O)N(C)C)cc32)CC1,-0.986%
5,Cc1cccc(OCC(=O)OCc2cc(=O)n3nc(C4CC4)sc3n2)c1,-0.0203%
6,O=C(NCc1ccccc1)c1cccc(Nc2nc3ccccc3n3nnnc23)c1,1.08%
7,CCOC(=O)Cc1c(C)nc2c(-c3ccc(OC)c(OC)c3)c(C)nn2c1C,-2.5%
8,COc1ccccc1N1CCN(CC(=O)c2c[nH]c3ccccc23)CC1,active: 62.7%
9,CCOC(=O)CC(NC(=O)c1cc2cc(OC)ccc2oc1=O)c1ccc(OC)cc1 (configuration not stated),6.43%
10,Cc1cccc(C(=O)Nc2nnc(S(=O)(=O)N3CCC(C)CC3)s2)c1,1.03%
11,COc1ccc(-c2cc(C(=O)Nc3ccc(C#N)cc3)no2)cc1,-11.1%
12,O=C(CCC(=O)N1CC2CCCN2c2ccccc21)NCc1ccccc1F (configuration not stated),4.9%
13,O=C(c1ccc(Cl)cc1)C1CCN(Cc2ccccc2)CC1,active: 81.2%
14,Cc1ccc(S(=O)(=O)N(C)C)cc1NC(=O)C1CCN(C(=O)Nc2ccccc2)CC1,active: 73.3%
15,CCCOc1ccc(C(=O)Nc2cc3nn(-c4ccc(CC)cc4)nc3cc2C)cc1,10.2%
16,O=C(CSc1nnc(-c2ccccc2)c(-c2ccccc2)n1)Nc1ccccc1Cl,-8.34%
17,COc1ccccc1OCCCn1c(-c2ccc(Cl)cc2)nc2ccccc2c1=O,-12.1%
18,CCC(C)Cn1c(COc2ccc(OC)cc2)nc2ccccc21 (configuration not stated),6.19%
19,O=C(CS(=O)(=O)c1ccc(F)cc1)NCc1ccccc1,active: 34.3%
20,COc1ccc(NC(=O)Nc2nnc(SCC(=O)Nc3cccc(C)c3C)s2)cc1,-2.41%
21,CCn1cnc2c(=O)oc3ccc(S(=O)(=O)N4CCN(c5cc(C)ccc5C)CC4)cc3c21,1.4%
22,O=S(=O)(NCCc1ccc(Cl)cc1)c1ccc(N2CCCCS2(=O)=O)cc1,-1.67%
23,OCc1cn(-c2ccccc2)nc1-c1cc2ccccc2o1,active: 44.7%
24,COc1ccc(C2=C(C)C(=O)N(Cc3ccc(C(=O)NCc4ccccc4C)cc3)S2(=O)=O)cc1,-5.05%
25,CCOc1ccc(NC(=O)CCn2c(-c3ccc(F)cc3)cc(C(C)=O)c2C)cc1,12.2%

row,SMILES,inhibition
1,Cc1ccc(C2C=C(c3ccc(Cl)cc3)Nc3nc(NC(=O)CCC(=O)O)nn32)cc1 (configuration not stated),4.98%
2,O=C(NCc1ccc(F)cc1)c1ccc2c(c1)N(Cc1ccc(F)cc1Cl)C(=O)CS2,-0.775%
3,CCCSc1ncc(Cl)c(C(=O)Nc2ccc(OC)cc2OC)n1,13.7%
4,O=C(NCCn1cc(SCc2ccc(C(F)(F)F)cc2)c2ccccc21)c1ccccc1F,8.67%
5,Cc1ccc(CN2C(=O)SC(Nc3ccccc3)C2=O)cc1 (configuration not stated),-1.07%
6,COc1cccc(CNC(=O)CCn2ccc3cc(S(=O)(=O)N4CCCC4)ccc32)c1,-0.17%
7,CC(C)CCSc1nc2c(c(=O)n(C)c(=O)n2C)n1Cc1ccccc1Cl,-5.41%
8,CCOC(=O)c1ccc(NC(=O)Nc2cccc(OCc3cc(=O)n4ccc(C)cc4n3)c2)cc1,11.2%
9,COc1ccc(NC(=O)CCc2nc3cccnc3n2Cc2cccs2)c(OC)c1,5.37%
10,Cc1cc(N2CCN(c3ccccc3F)CC2)n2cnnc2n1,8.47%
11,O=S(=O)(NCC(c1ccco1)S(=O)(=O)c1ccccc1)c1cc(F)ccc1F (configuration not stated),24.4%
12,Cc1cccc(-c2noc(-c3cccnc3NCc3ccccc3Cl)n2)c1,-4.56%
13,CNC(=O)C1CCC(Cn2c(=O)c3sccc3n(CC(=O)N3CCCCC3C)c2=O)CC1 (configuration not stated),-7.9%
14,COc1cc(C2CC(=O)N(c3ccc(C)c(Cl)c3)C3=C2C(=O)OC3)cc(OC)c1OC (configuration not stated),15.5%
15,COc1ccccc1NC(=O)c1ccc(NC(=O)COC(=O)C2CCCO2)cc1 (configuration not stated),active: 41.3%
16,Cc1cc(C=C2C(=O)c3ccccc3C2=O)c(C)n1-c1ccc(Cl)cc1,active: 33.5%
17,O=C(CCS(=O)(=O)c1ccc(Br)s1)Nc1c(F)cccc1F,21%
18,COc1ccc(S(=O)(=O)N(Cc2nc(-c3ccccc3)no2)C2CCCCC2)cc1,-3.67%
19,Fc1ccc(Nc2nc(SCc3ccc(Cl)cc3)nc3ccccc23)cc1,6.11%
20,Cc1cc(N2CCCC2)nc(N2C3CCC2CC(O)(c2ccc(F)cc2)C3)n1 (configuration not stated),active: 42.2%
21,Cc1nc2nc(CNC(=O)c3cccc(F)c3)nn2c(C)c1CCC(=O)Nc1ccc(F)cc1,12%
22,CCOc1ccc(NS(=O)(=O)c2ccc3[nH]cc(C(=O)N4CCCC4)c(=O)c3c2)cc1,-26.8%
23,CC(C)c1cnc2c(c1SCc1ccc([N+](=O)[O-])cc1)c(=O)n(C)c(=O)n2C,-24%
24,O=c1n(Cc2ccccc2)nc2n1-c1ccccc1OC2,23.9%
25,COc1cc2c(cc1OC)C(COc1ccc(F)cc1)N(C(=O)C(C)C)CC2 (configuration not stated),-8.28%

row,SMILES,inhibition
1,CC(C)NC(=O)Cc1csc2nc(-c3ccccc3)cn12,-0.503%
2,Cc1noc(Cn2c(=O)c3cc4c(cc3n(CC(=O)Nc3ccc(C(C)C)cc3)c2=O)OCO4)n1,-4.76%
3,CCN(c1ccccc1)S(=O)(=O)c1ccc(NC(=O)c2cc(=O)c3c(C)cc(C)cc3o2)cc1,9.74%
4,COc1cccc(-c2cc(C(F)(F)F)n3nc(-c4ccc(C)cc4)cc3n2)c1,20.7%
5,CNS(=O)(=O)c1ccc(NC(=O)c2nc3nc(C)cc(C(F)F)n3n2)cc1,5.18%
6,Cc1ccc(/C=N\NC(=O)c2ccc3c(c2)OCO3)o1,active: 32%
7,O=C1CCc2cc(S(=O)(=O)NC(C(=O)Nc3ccc(F)cc3)c3ccccc3)ccc2N1 (configuration not stated),3.06%
8,Cc1cc(C)c(-c2csc(NC(=O)C3=COCCO3)n2)cc1C,active: 31.8%
9,CCc1cccc(NC(=O)c2cc(S(=O)(=O)N3CCCCCC3)cn2C)c1,6.74%
10,COc1ccccc1N1CCN(C(=O)c2cc3c(s2)-c2ccccc2OC3)CC1,10.7%
11,CC(C)(C)C(=O)NC1CC(=O)N(c2ccc3c(c2)OCCO3)C1 (configuration not stated),-2.88%
12,COc1ccccc1NC(=O)c1sc2nc(C)c(C(=O)Nc3ccc(Cl)cc3)c(-c3ccc(Br)cc3)c2c1N,12.4%
13,Cc1ccccc1CN1CCC(CNC(=O)c2cc3ccc4cccnc4c3[nH]2)CC1,16.8%
14,O=C1CC(c2nnc(Cc3ccc(F)cc3)o2)CN1c1ccccc1 (configuration not stated),12.3%
15,Fc1ccccc1-n1ncc2c1ncn1nc(COc3ccc(Cl)cc3)nc21,-4.21%
16,Cc1cccc(NC(=O)CSc2cn(CC(=O)N3CCC(C)CC3)c3ccccc23)c1C,2.24%
17,CC(=O)c1cccc(NC(=O)Cn2c(-c3cncs3)nc3ccccc32)c1,0.95%
18,Cc1cccc(N2CCN(S(=O)(=O)c3nnc(NC(=O)c4ccc(Cl)cc4)s3)CC2)c1,13.4%
19,CCOc1ccccc1CNC(=O)C1CCN(c2nnc(C)c3c(C)n(-c4ccc(C)cc4)nc23)CC1,-8.96%
20,O=C(CC1(O)C(=O)N(CCc2ccccc2)c2ccc(Br)cc21)c1ccccc1 (configuration not stated),-12.2%
21,CCC1CCCCN1C(=O)CSc1n[nH]c(-c2ccccc2)n1 (configuration not stated),-17%
22,Clc1ccccc1CN(Cc1ccccc1)C(c1cccs1)c1nnnn1C1CCCC1 (configuration not stated),active: 50%
